# According to the supplement of paper PMC8728848:
# The other results are listed elsewhere or left out.
# B1: NKR-PIC (Mus musculus) (protein)
# chain: GTGQKPSREKCCVFIQENLNKTTDCSVNLECPQDWLLHRDKCFHVSQVSNTWEEGQADCGRKGATLLLIQDQEELRFLLDSIKEKYNSFWIGLRFTLPDMNWKWINGTTFNSDVLKITGVTENGSCASILGDKVTPESCASDNRWICQKELNHETPSNDSGT
# Columns and labels:
# Assay in all cases: glycan array binding signal (z-score within array); higher = stronger binding
# Details in all cases: glycan notation: IUPAC condensed, linker removed
# [1] = target: Gal(b1-3)GlcNAc(b1-6)[Gal(b1-3)]GalNAc
# In short: (§1)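 Glycan array binding is given as a within-array Z-score, which can be read as non-binding when negative. The arrays, 3228 of them, came from the Consortium for Functional Glycomics database and were retained only where the protein sequence was available. Z-scores were averaged across arrays of the same protein sequence at different concentrations or buffers and across linkers.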
# Gal(b1-3)GlcNAc6S = target: Gal(b1-3)GlcNAc6S
# In short: as §1
# [2] = target: Gal(b1-3)[Fuc(a1-4)]GlcNAc
# In short: as §1
# [3] = target: Gal(b1-3)[Fuc(a1-4)]GlcNAc(b1-2)Man
# In short: as §1
# [4] = target: Gal(b1-3)[Fuc(a1-4)]GlcNAc(b1-2)Man(a1-3)[Gal(b1-3)[Fuc(a1-4)]GlcNAc(b1-2)Man(a1-6)]Man(b1-4)GlcNAc(b1-4)[Fuc(a1-6)]GlcNAc
# In short: as §1
# [5] = target: Gal(b1-3)[Fuc(a1-4)]GlcNAc(b1-3)Gal(b1-3)[Fuc(a1-4)]GlcNAc
# In short: as §1
# [6] = target: Gal(b1-3)[Fuc(a1-4)]GlcNAc(b1-3)Gal(b1-4)[Fuc(a1-3)]GlcNAc
# In short: as §1
# [7] = target: Gal(b1-3)[Fuc(a1-4)]GlcNAc(b1-6)GalNAc
# In short: as §1
# [8] = target: Gal(b1-3)[GlcNAc(b1-6)]GalNAc
# In short: as §1
# [9] = target: Gal(b1-3)[Neu5Ac(a2-6)]GalNAc
# In short: as §1
# [10] = target: Gal(b1-3)[Neu5Ac(a2-6)]GlcNAc(b1-4)Gal(b1-4)Glc
# In short: as §1
# [11] = target: Gal(b1-3)[Neu5Ac(b2-6)]GalNAc
# In short: as §1
# Gal(b1-4)Gal = target: Gal(b1-4)Gal
# In short: as §1
# [12] = target: Gal(b1-4)GalNAc(a1-3)[Fuc(a1-2)]Gal(b1-4)GlcNAc
# In short: as §1
# [13] = target: Gal(b1-4)GalNAc(b1-3)[Fuc(a1-2)]Gal(b1-4)GlcNAc
# In short: as §1
# Gal(b1-4)Glc = target: Gal(b1-4)Glc
# In short: as §1
# Gal(b1-4)Glc6S = target: Gal(b1-4)Glc6S
# In short: as §1
# Gal(b1-4)GlcNAc = target: Gal(b1-4)GlcNAc
# In short: as §1
# [14] = target: Gal(b1-4)GlcNAc(a1-6)Gal(b1-4)GlcNAc
# In short: as §1
# Gal(b1-4)GlcNAc(b1-2)Man = target: Gal(b1-4)GlcNAc(b1-2)Man
# In short: as §1
# [15] = target: Gal(b1-4)GlcNAc(b1-2)Man(a1-3)Man(b1-4)GlcNAc(b1-4)GlcNAc
# In short: as §1
# [16] = target: Gal(b1-4)GlcNAc(b1-2)Man(a1-3)[Gal(b1-4)GlcNAc(b1-2)Man(a1-6)]Man(b1-4)GlcNAc(b1-4)GlcNAc
# In short: as §1
# [17] = target: Gal(b1-4)GlcNAc(b1-2)Man(a1-3)[Gal(b1-4)GlcNAc(b1-2)Man(a1-6)]Man(b1-4)GlcNAc(b1-4)[Fuc(a1-6)]GlcNAc
# In short: as §1
# [18] = target: Gal(b1-4)GlcNAc(b1-2)Man(a1-3)[Gal(b1-4)GlcNAc(b1-2)Man(a1-6)][Gal(b1-4)GlcNAc(b1-4)]Man(b1-4)GlcNAc(b1-4)[Fuc(a1-6)]GlcNAc
# In short: as §1
# [19] = target: Gal(b1-4)GlcNAc(b1-2)Man(a1-3)[Gal(b1-4)GlcNAc(b1-2)Man(a1-6)][GlcNAc(b1-4)]Man(b1-4)GlcNAc(b1-4)[Fuc(a1-6)]GlcNAc
# In short: as §1
# [20] = target: Gal(b1-4)GlcNAc(b1-2)Man(a1-3)[GlcNAc(b1-2)Man(a1-6)]Man(b1-4)GlcNAc(b1-4)GlcNAc
# In short: as §1
# [21] = target: Gal(b1-4)GlcNAc(b1-2)Man(a1-3)[GlcNAc(b1-4)][Gal(b1-4)GlcNAc(b1-2)Man(a1-6)]Man(b1-4)GlcNAc(b1-4)GlcNAc
# In short: as §1
# [22] = target: Gal(b1-4)GlcNAc(b1-2)Man(a1-3)[Man(a1-6)]Man(b1-4)GlcNAc(b1-4)GlcNAc
# In short: as §1
# [23] = target: Gal(b1-4)GlcNAc(b1-2)Man(a1-6)Man(b1-4)GlcNAc(b1-4)GlcNAc
# In short: as §1
# [24] = target: Gal(b1-4)GlcNAc(b1-2)Man(a1-6)[GlcNAc(b1-2)Man(a1-3)]Man(b1-4)GlcNAc(b1-4)GlcNAc
# In short: as §1
# [25] = target: Gal(b1-4)GlcNAc(b1-2)Man(a1-6)[Man(a1-3)]Man(b1-4)GlcNAc(b1-4)GlcNAc
# In short: as §1
# [26] = target: Gal(b1-4)GlcNAc(b1-2)[Gal(b1-4)GlcNAc(b1-4)]Man(a1-3)[Gal(b1-4)GlcNAc(b1-2)Man(a1-6)]Man(b1-4)GlcNAc(b1-4)GlcNAc
# In short: as §1
# [27] = target: Gal(b1-4)GlcNAc(b1-2)[Gal(b1-4)GlcNAc(b1-4)]Man(a1-3)[Gal(b1-4)GlcNAc(b1-2)[Gal(b1-4)GlcNAc(b1-6)]Man(a1-6)]Man(b1-4)GlcNAc(b1-4)GlcNAc
# In short: as §1
# [28] = target: Gal(b1-4)GlcNAc(b1-2)[Gal(b1-4)GlcNAc(b1-4)]Man(a1-3)[GlcNAc(b1-4)][Gal(b1-4)GlcNAc(b1-2)Man(a1-6)]Man(b1-4)GlcNAc(b1-4)GlcNAc
# In short: as §1
# [29] = target: Gal(b1-4)GlcNAc(b1-2)[Gal(b1-4)GlcNAc(b1-4)]Man(a1-3)[GlcNAc(b1-4)][Gal(b1-4)GlcNAc(b1-2)[Gal(b1-4)GlcNAc(b1-6)]Man(a1-6)]Man(b1-4)GlcNAc(b1-4)GlcNAc
# In short: as §1
# [30] = target: Gal(b1-4)GlcNAc(b1-2)[Gal(b1-4)GlcNAc(b1-6)]Man(a1-6)[Gal(b1-4)GlcNAc(b1-2)Man(a1-3)]Man(b1-4)GlcNAc(b1-4)GlcNAc
# In short: as §1
# [31] = target: Gal(b1-4)GlcNAc(b1-2)[Gal(b1-4)GlcNAc(b1-6)]Man(a1-6)[Gal(b1-4)GlcNAc(b1-2)Man(a1-3)]Man(b1-4)GlcNAc(b1-4)[Fuc(a1-6)]GlcNAc
# In short: as §1
# [32] = target: Gal(b1-4)GlcNAc(b1-2)[Gal(b1-4)GlcNAc(b1-6)]Man(a1-6)[GlcNAc(b1-4)][Gal(b1-4)GlcNAc(b1-2)Man(a1-3)]Man(b1-4)GlcNAc(b1-4)GlcNAc
# In short: as §1
# [33] = target: Gal(b1-4)GlcNAc(b1-2)[Gal(b1-4)GlcNAc(b1-6)]Man(a1-6)[GlcNAc(b1-4)][Gal(b1-4)GlcNAc(b1-2)[Gal(b1-4)GlcNAc(b1-4)]Man(a1-3)]Man(b1-4)GlcNAc(b1-4)[Fuc(a1-6)]GlcNAc
# In short: as §1
# [34] = target: Gal(b1-4)GlcNAc(b1-3)Gal(b1-3)GalNAc
# In short: as §1
# [35] = target: Gal(b1-4)GlcNAc(b1-3)Gal(b1-3)GlcNAc
# In short: as §1
# [36] = target: Gal(b1-4)GlcNAc(b1-3)Gal(b1-4)Glc
# In short: as §1
# [37] = target: Gal(b1-4)GlcNAc(b1-3)Gal(b1-4)GlcNAc
# In short: as §1
# [38] = target: Gal(b1-4)GlcNAc(b1-3)Gal(b1-4)GlcNAc(b1-2)Man(a1-3)[Gal(b1-4)GlcNAc(b1-3)Gal(b1-4)GlcNAc(b1-2)Man(a1-6)]Man(b1-4)GlcNAc(b1-4)GlcNAc
# In short: as §1
# [39] = target: Gal(b1-4)GlcNAc(b1-3)Gal(b1-4)GlcNAc(b1-2)Man(a1-3)[Gal(b1-4)GlcNAc(b1-3)Gal(b1-4)GlcNAc(b1-2)Man(a1-6)]Man(b1-4)GlcNAc(b1-4)[Fuc(a1-6)]GlcNAc
# In short: as §1
binder,measurement,setting,value
B1,glycan array binding signal (z-score),[1],-0.308
same,glycan array binding signal (z-score),Gal(b1-3)GlcNAc6S,-0.356
same,glycan array binding signal (z-score),[2],-0.262
same,glycan array binding signal (z-score),[3],-0.313
same,glycan array binding signal (z-score),[4],-0.317
same,glycan array binding signal (z-score),[5],-0.393
same,glycan array binding signal (z-score),[6],-0.355
same,glycan array binding signal (z-score),[7],-0.37
same,glycan array binding signal (z-score),[8],-0.028
same,glycan array binding signal (z-score),[9],-0.312
same,glycan array binding signal (z-score),[10],-0.302
same,glycan array binding signal (z-score),[11],-0.284
same,glycan array binding signal (z-score),Gal(b1-4)Gal,-0.361
same,glycan array binding signal (z-score),[12],0.143
same,glycan array binding signal (z-score),[13],-0.153
same,glycan array binding signal (z-score),Gal(b1-4)Glc,-0.325
same,glycan array binding signal (z-score),Gal(b1-4)Glc6S,-0.293
same,glycan array binding signal (z-score),Gal(b1-4)GlcNAc,-0.065
same,glycan array binding signal (z-score),[14],-0.332
same,glycan array binding signal (z-score),Gal(b1-4)GlcNAc(b1-2)Man,-0.257
same,glycan array binding signal (z-score),[15],0.039
same,glycan array binding signal (z-score),[16],-0.342
same,glycan array binding signal (z-score),[17],-0.274
same,glycan array binding signal (z-score),[18],-0.225
same,glycan array binding signal (z-score),[19],0.13
same,glycan array binding signal (z-score),[20],-0.321
same,glycan array binding signal (z-score),[21],0.15
same,glycan array binding signal (z-score),[22],-0.323
same,glycan array binding signal (z-score),[23],-0.334
same,glycan array binding signal (z-score),[24],-0.347
same,glycan array binding signal (z-score),[25],-0.392
same,glycan array binding signal (z-score),[26],-0.362
same,glycan array binding signal (z-score),[27],-0.311
same,glycan array binding signal (z-score),[28],-0.332
same,glycan array binding signal (z-score),[29],-0.283
same,glycan array binding signal (z-score),[30],-0.211
same,glycan array binding signal (z-score),[31],-0.307
same,glycan array binding signal (z-score),[32],0.095
same,glycan array binding signal (z-score),[33],-0.362
same,glycan array binding signal (z-score),[34],-0.35
same,glycan array binding signal (z-score),[35],-0.255
same,glycan array binding signal (z-score),[36],-0.355
same,glycan array binding signal (z-score),[37],-0.235
same,glycan array binding signal (z-score),[38],-0.307
same,glycan array binding signal (z-score),[39],-0.164
